# Data published in patent US20240358818A1, “ANTIBODY-INDUCING POLYPEPTIDE AND VACCINE” (priority 2021, published 2024).
# Test system: pseudotyped lentivirus having the SARS-COV-2 spike protein
# Type: cell-based
# Conditions: mouse antiserum, final dilution 45-, 90-, 180-fold; FIG. 8
row,Sequence,protection of ACE2-expressing CRFK cells from pseudovirus infection (luciferase activity)
1,ELDSFKEELDKYFKNHTS (also: conjugate) [#111],prevent pseudovirus infection in a concentration-dependent manner
2,YGVSPTKLNDLCF (also: conjugate) [#5],no inhibitory activity on pseudovirus infection was observed

# No end group written: not given here.
